From PubChem BioAssay AID1508624 (National Center for Advancing Translational Sciences (NCATS), 2021) come the findings set out here.

Each structure is given as a SMILES string. Out of some 48,000 compounds screened, about 120 (0.25%) were called active. About 4% were inconclusive and are not listed. Calls come from the whole dose curve; as a rule, active = well fitted activation curve with a large enough effect; inconclusive = small, poorly fitted or top-dose-only effect, or another doubt; inactive = no such curve, though single readings can be large or run the other way. The list shows a part of the results.

A short description of this assay: Primary qHTS for Identification of Small Molecule Activators of Huntingtin-Antisense Promoter Activity. Note: nearly all actives have a fitted effect of over 55% in size. The following applies: HEK293 HTT-AS promoter firefly luciferase reporter (activity 0% = vehicle and -100% = no light), 24 h; series mostly up to 57.5 µM; activity change, positive = activation: at the top concentration. In short, it runs like this: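 Firefly luciferase readout (Dual-Glo, 10 min RT) after 24 h, 37 °C compound exposure (final up to 57.5 uM) of HEK293 reporter cells cultured 24 h beforehand; PTC124 at 50 uM final as control inhibitor; activity scaled vehicle 0%, zero RLU -100%.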
A general note: qHTS replaces the single test concentration by a dilution series.
In the case of `COc1cc(NC(=O)Nc2cccc(-c3noc(C)n3)c2)cc(OC)c1OC`, the “activity change, positive = activation” value is inactive: -26.6%.
With `CCOc1ccc(-n2c(=O)c3c(C)c(C)sc3n(CC(=O)N(CC)Cc3ccccc3)c2=O)cc1`, the “activity change, positive = activation” value was inactive: 9.57%.
As for `CCC(C)n1ncn(-c2ccc(N3CCN(c4ccc(OC[C@H]5CO[C@](Cn6cncn6)(c6ccc(Cl)cc6Cl)O5)cc4)CC3)cc2)c1=O` (stereo partly specified), the activity change, positive = activation entry is “inactive”.
Under `Cc1ccc(Cl)cc1NC(=O)Cc1ccc(-n2c(C)nc3cccnc32)cc1` stands inactive: -14.4%; under `CCOc1ccc(CNc2nc3nc(C)c(Cc4ccccc4)c(=O)n3[nH]2)cc1`, inactive: -9.77%.
With `COc1ccc2c(c1)CC(C(=O)Nc1cc(Cl)ccc1C)CO2` (stereo unspecified), the “activity change, positive = activation” value is inactive: -23.5%.
Under `CCc1ccc(CNC(=O)C2Cc3cc(S(=O)(=O)N4CCCCCC4)ccc3N2C(C)=O)cc1` (stereo unspecified) stands inactive: -1.18%; under `COc1cc(C2c3c(oc4ccccc4c3=O)C(=O)N2c2ccccn2)cc(OC)c1OC` (stereo unspecified), inactive: -24.3%.
Consider `COc1ccc(N(Cc2cccs2)C(=O)c2ccc(OCC(C)C)cc2)cc1`, for which the “activity change, positive = activation” value was inactive: -20.9%.
Turning to `COC(=O)[C@@H]1[C@H]2C[C@H]3c4[nH]c5ccccc5c4CCN3C[C@@H]2CC[C@@H]1O`, the “activity change, positive = activation” value is inactive: 4.75%.
`CCCc1nn2c(=O)cc(COC(=O)c3ccccc3NC(=O)c3cccs3)nc2s1`: the “activity change, positive = activation” value is inactive: -3.74%.
Consider `Cc1ccc(C)c(C(=O)c2c(N)c(-c3nc(-c4ccc5c(c4)OCO5)cs3)c3ccccn23)c1`, for which the “activity change, positive = activation” value was inactive: -12%.
Under `Cc1cccc(NC(=O)C2CCC(CNS(=O)(=O)c3ccc(Br)s3)CC2)c1` (stereo unspecified) stands inactive: -22%; under `Cc1ccc(OCC(=O)Nc2ccc(Cl)c(-c3nc4ncccc4o3)c2)c(C)c1`, inactive: -12.3%; under `COc1cccc(C2CC(=O)N(c3ccc(F)cc3)C3=C2C(=O)OC3)c1OC` (stereo unspecified), inactive: -11.3%.
For `COCCCNC(=O)CSc1nc2c(sc3ccccc32)c(=O)n1CCc1ccccc1`, the “activity change, positive = activation” value is inactive: 7%.
For `COc1cc(NC(=O)CSc2nc3ccccc3nc2Cc2ccc(Cl)cc2)cc(OC)c1`, the “activity change, positive = activation” value was inactive: -0.645%.
Take `Cc1nc2c(c(C)c1CCC(=O)NCc1ccccc1)c(=O)n(C)c(=O)n2C`: the “activity change, positive = activation” value was inactive: -3.97%.
As for `C[C@@H](Cc1cc2c(c(C(N)=O)c1)N(CCCO)CC2)NCCOc1ccccc1OCC(F)(F)F`, the “activity change, positive = activation” value is inactive: -17.3%.
Turning to `CCOC(=O)c1cccc(NC(=O)c2cc3c(-c4cccc(OC)c4)nn(C)c3s2)c1`, the “activity change, positive = activation” value is inactive: -18.2%.
Under `CC(C)(C)c1ccc(OCC(=O)Nc2ccc(S(=O)(=O)Nc3ncccn3)cc2)cc1` stands inactive: 27%.
Regarding `O=C1Nc2ccc(Cl)cc2C(C#CC2CC2)(C(F)(F)F)O1` (stereo unspecified), the “activity change, positive = activation” value was inactive: -29.1%.
Under `Cc1ccc(S(=O)(=O)c2nc(S(C)(=O)=O)sc2N(C)Cc2ccccc2)cc1` stands inactive: -17.1%; under `Cc1cccc(NC(=O)C2CCC(CNS(=O)(=O)c3csc(C(N)=O)c3)CC2)c1C` (stereo unspecified), inactive: -20.1%.
On to `COc1cccc(Nc2cc(C)nc3nc(-c4ccc(Cl)cc4)nn23)c1`, for which the “activity change, positive = activation” value was inactive: 0.99%.
Under `N#Cc1c(N)n(-c2cccc(Cl)c2)c2nc3ccccc3nc12` stands inactive: -15.9%; under `Cc1nn2c(=O)cc(COc3ccc(/C=C(\C#N)C(=O)Nc4ccc(F)cc4)cc3)nc2s1`, inactive: -3.52%.
As for `Cc1nn(C)c2c1c(-c1ccccc1)cc(=O)n2CC(=O)Nc1ccccc1C(F)(F)F`, the “activity change, positive = activation” value was inactive: -18.3%.
In the case of `O=C(COc1ccccc1Cl)Nc1nnc(S(=O)(=O)N2CCCCCC2)s1`, the “activity change, positive = activation” value is inactive: -20.8%.
The value for `O=C(NCCCc1nc2ccccc2n1Cc1c(F)cccc1Cl)C1CCCCC1` was inactive: -8.49%.
For the molecule `COc1ccc(C(=O)N(Cc2ccc(C(C)C)cc2)C2CCS(=O)(=O)C2)cc1` (stereo unspecified), the “activity change, positive = activation” value is inactive: -16.1%.
The value for `Cc1nc2nc(SCC(=O)NCCc3ccccc3)nn2c(C)c1Cc1c(F)cccc1Cl` was inactive: -12.4%; that for `Cc1ccccc1CNS(=O)(=O)c1csc(C(N)=O)c1` was inactive: 4.01%.
The value for `Cc1ccc(C(C)C)c(OCC(=O)N2CCC(c3nc4ccccc4o3)CC2)c1` was inactive: -29.8%.
On to `CCn1c(SCCOc2ccccc2F)nc2ccccc21`, for which the “activity change, positive = activation” value was inactive: -0.999%.
For `CCOc1ccccc1C(=O)Nc1ccc2c(c1)N(C)C(=O)c1ccccc1S2`, the “activity change, positive = activation” value was inactive: -48.3%.
`Cc1nn(-c2ccc(N3CCOCC3)nn2)c(C)c1CCC(=O)NCc1ccc(OC(C)C)cc1`: the “activity change, positive = activation” value is inactive: -14.2%.
As to `Cc1c(C2=CCN(S(=O)(=O)c3ccc(CC(C)C)cc3)CC2)c2ccccc2n1CC(=O)N1CCCC1`, the “activity change, positive = activation” value was inactive: -19.8%.
The value for `Cc1ccc(C)c(NC(=O)CN2C(=O)COc3ccc(Cl)cc32)c1` was inactive: -25.1%.
With `Cn1c(=O)nc2n(-c3ccc(Cl)c(Cl)c3)c3cc(Cl)ccc3cc-2c1=O`, the “activity change, positive = activation” value was inactive: -14%.
On to `O=C(Nc1c(C(=O)Nc2ccc(F)cc2)oc2ccccc12)c1ccccc1F`, for which the “activity change, positive = activation” value is inactive: 9.72%.
In the case of `CCCCNC(=O)NS(=O)(=O)c1ccc(C)cc1`, the “activity change, positive = activation” value is inactive: -13.1%.
With `COc1ccccc1CNC(=O)C1CCCN(c2nnc(-n3c(C)ccc3C)s2)C1` (stereo unspecified), the “activity change, positive = activation” value was inactive: -10.1%.
Turning to `CC1=C(C(=O)OCC2CCCCC2)C(c2ccccc2F)CC(=O)N1` (stereo unspecified), the “activity change, positive = activation” value is inactive: -35.2%.
For `Cc1cc(O)cc2c1O[C@](C)(CCC[C@H](C)CCC[C@H](C)CCCC(C)C)CC2`, the “activity change, positive = activation” value is inactive: -4.05%.
`Cc1ccc(NC(=O)Cn2c(=O)n(CCCCC(=O)NCCc3ccccc3)c(=O)c3ccccc32)c(C)c1`: the “activity change, positive = activation” value was inactive: -1.02%.
